Assay results from PubChem BioAssay AID1457 (National Center for Advancing Translational Sciences (NCATS), 2008).
About 730 (0.35%) of roughly 210,000 compounds were called active. The shares of active, inactive and inconclusive entries below differ from those in the screen. The call rests on the fitted dose curve; in most records, active means well fitted inhibition curve with a large enough effect; inconclusive means small, poorly fitted or top-dose-only effect; inactive means no such curve, though single readings can be large or run the other way. Where the call is inconclusive, the potency comes from a doubtful curve fit.

assay: qHTS Assay for Identifying the Cell-Membrane Permeable IMPase Inhibitors: Potentiation with Lithium; conditions: CHO-M1 cells, IP1 TR-FRET (IP-One), carbachol + lithium; series mostly up to 59.4 µM; activity, negative = IMPase inhibition: at the top concentration; further: nearly all actives have a fitted effect of over 50% in size;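 on activity, negative = IMPase inhibition: plate controls were basal vehicle for no effect and high inhibitor control for full effect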
How it was run: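 Readout is a homogeneous TR-FRET IP1 immunoassay (Ex 320, Em 665 and 620), where raised cytosolic IP1 lowers signal. Cells were CHO-M1 treated 30 min at 37C with test compounds plus a little lithium; AC50 values came from Hill-equation fitting.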
Potency means the concentration at half of the fitted maximal effect.

SMILES | Potency | activity, negative = IMPase inhibition
Cc1sc2ncnc(Sc3nc4ccccc4s3)c2c1C | active: 14.1 µM | 
COc1ccc(OC)c(Nc2ncnc3sc(-c4ccccc4)cc23)c1 | inconclusive: 28.2 µM [inhibitor, single point] | 
Cc1ccc2[nH]c3c(=S)nc[nH]c3c2c1 | active: 12.6 µM | 
CCn1c(CNC(=O)c2ccc(OC)cc2)nnc1SCC(=O)c1ccccc1 |  | inactive: 6.37%
COc1ccc(CCNC(=O)CSc2nc(C)nc3c2oc2ccccc23)cc1OC | inconclusive: 10 µM [inhibitor, single point] | 
CCOc1ccc(/C=C2/C(=N)N3OC(C)=CC3=NC2=O)cc1OC | inconclusive: 15.8 µM [inhibitor, single point] | 
COC(=O)c1cc2c(C)c(C)c3ccccn3c-2c1C(=O)OC | inconclusive: 10 µM [inhibitor, single point] | 
COC(=O)Cn1c(=NC(=O)c2ccc(S(=O)(=O)N3CCc4ccccc4C3)cc2)sc2cc(OC)ccc21 | inconclusive: 28.2 µM [inhibitor, single point] | 
CCOc1ccc(C2/C(=C(\O)c3c(C)[nH]c(C(=O)OC)c3C)C(=O)C(=O)N2CCN(C)C)cc1 (configuration not stated) | inconclusive: 10 µM [inhibitor, single point] | 
Cc1cc(C)n(-c2ccc(C(=O)OCC(=O)c3ccc(Br)s3)cc2)n1 | inconclusive: 14.1 µM [inhibitor, single point] | 
FC(F)(F)c1nc(=S)c2ccccc2[nH]1 | active: 3.16 µM | 
Cc1ccc(NC(=O)c2ccc(-n3cccn3)nc2)cc1 | inconclusive: 28.2 µM [inhibitor, single point] | 
COc1ccc(N2C(=O)CC(Sc3nnc(-c4ccccc4)o3)C2=O)cc1 (configuration not stated) | active: 8.91 µM | 
COc1ccc(C)cc1NC(=O)c1cnc2sccn2c1=O | inconclusive: 14.1 µM [inhibitor, single point] | 
CC(=O)NCCNc1ncnc2ccc(-c3ccccc3C#N)cc12 | inconclusive: 10 µM [inhibitor, partial curve] | 
CN1CCN(Cc2c(O)ccc3c2oc(=O)c2ccccc23)CC1 | inconclusive: 10 µM [inhibitor, single point] | 
COc1cc(SC)ccc1C(=O)Nc1ccc(S(=O)(=O)N2CCCC2)cc1 | inconclusive: 22.4 µM [inhibitor, single point] | 
Cc1cccc(C)c1OCC(O)Cn1nnc2ccccc21 (configuration not stated) | inconclusive: 22.4 µM [inhibitor, single point] | 
Cc1ccc(-n2cc(-c3ccccc3)[nH]c2=O)cc1F |  | inactive: 26.9% [at 38.3 µM]
Clc1ccc(N2CCN(c3ncnc4c3oc3ccccc34)CC2)cc1 | active: 10 µM | 
Fc1c(F)c(F)c(N/N=C/c2c[nH]c3ccccc23)c(F)c1F |  | inactive: 9.19%
COc1cccc(C(=O)CSc2nc3cccnc3n2C)c1 | inconclusive: 28.2 µM [inhibitor, single point] | 
CC[C@H]1C(c2ccc(F)cc2)=NN(c2ccccc2)[C@@H]1CO | inconclusive: 25.1 µM [inhibitor, partial curve] | 
Cc1cc(/C=N/NC(=O)c2cccc([N+](=O)[O-])c2)c(C)n1-c1ccccc1 |  | inactive: 3.74%

SMILES | Potency | activity, negative = IMPase inhibition
CCOC(=O)c1sc(NC(=O)c2cccs2)cc1C |  | inactive: 9.97% [at 38.3 µM]
Cc1ccc(C)c(CN2C(=O)C3CCCN3c3ccc(S(=O)(=O)N4CCOCC4)cc32)c1 (configuration not stated) | inconclusive: 28.2 µM [inhibitor, single point] | 
COc1ccc(NC(=O)c2c(NC(=O)CNCC(C)C)sc3c2CCC3)c(OC)c1 | inconclusive: 28.2 µM [inhibitor, single point] | 
COc1ccc(Cn2nnnc2C(c2ccc(F)cc2)N2CCN(C3CCCC3)CC2)cc1 (configuration not stated) |  | inactive: 0.241% [at 38.3 µM]
CCOc1ccc(CCNC(=O)CSc2nn(-c3ccc(C)c(Cl)c3)c(=S)s2)cc1OCC | active: 10 µM | 
Cc1ccc(O)c(-c2cc(C(=O)NCc3ccncc3)[nH]n2)c1 |  | inactive: 3.96% [at 38.3 µM]
O=C1c2nc3ccccn3c2C(=O)N1Cc1ccccc1 | inconclusive: 5.01 µM [inhibitor, single point] | 
Cc1cc(C)cc(NS(=O)(=O)c2ccc(NC(=S)NC(=O)c3cccs3)cc2)c1 |  | inactive: 18.4%
Cc1cc(C)nc(N2CCC(C(=O)Nc3ccc4c(c3)CCC4)CC2)n1 | inconclusive: 12.6 µM [inhibitor, single point] | 
CCN(CCCNC(=O)Cn1ncc2c(=O)oc3ccccc3c21)c1cccc(C)c1 | inconclusive: 31.6 µM [inhibitor, single point] | 
CC1CCCC2(C1)NC(=S)c1c(sc3c1CCCC3)N2 (configuration not stated) |  | inactive: -7.01% [at 38.3 µM]
COc1ccc(-c2cc(C(=O)Nc3cc(C)on3)no2)cc1OC | inconclusive: 12.6 µM [inhibitor, partial curve] | 
COc1cc2c(C#N)c(N3CCOCC3)nc(N)c2c(N)n1 | inconclusive: 11.2 µM [inhibitor, single point] | 
Cc1cccc(Cn2nc(C)cc2NC(=O)CCCn2ccc([N+](=O)[O-])n2)c1 |  | inactive: 9.83%
O=C(CSc1nc2ccccc2c(=O)n1Cc1ccc(Cl)cc1)NCc1cccs1 | inconclusive: 14.1 µM [inhibitor, single point] | 
CCOC(=O)CSc1nc(-c2ccccc2)nc2ccc(F)cc12 | active: 10 µM | 
Cc1ccccc1-c1n[nH]c(=S)n1/N=C/c1ccc(-c2ccccc2Br)o1 | inconclusive: 28.2 µM [inhibitor, single point] | 
O=C(c1ccncc1)N1CCC[C@@]2(CCN(Cc3ccncc3)C2)C1 | inconclusive: 12.6 µM [inhibitor, single point] | 
CS(=O)(=O)N1CCC2(CC1)CN(c1cccc(-c3ccccc3)c1)C2 |  | inactive: -0.806%
COc1cc(OC)cc(-c2nnc(SCC(=O)N3CCCc4ccccc43)o2)c1 | inconclusive: 28.2 µM [inhibitor, single point] | 
COc1ccc(N2CCN(c3ccc(NC(=O)C4CCCCC4)cc3C#N)CC2)cc1 | inconclusive: 11.2 µM [inhibitor, single point] | 
CCOC(=O)c1cccc(NC(=O)C2CCCO2)c1 (configuration not stated) |  | inactive: 22.6% [at 38.3 µM]
Cc1cc(C)n2nc(SCN3C(=O)c4ccccc4C3=O)nc2n1 | active: 12.6 µM | 
